# Reference: PubChem BioAssay AID1963433 (Molecular Pharmacology Branch, DTP, NCI, 2024)
# The source holds more than one record for some entries. The list is limited to them. An entry can have further records. The values listed for one entry repeat one measurement in other runs, samples, wells, individuals or studies. Brackets with × say how often a value occurs here. Marks such as [2022-09] give the month of the run.
# Tested on: 772245-204-R-J1-PDC complex spheroid growth
# Test: Anticancer human tumor 772245-204-R-J1-PDC patient-derived rhabdomyosarcoma cell line growth inhibition [Asc]
# Details: for viability, T/C: stronger effect = lower value
# Protocol: Multicellular complex tumor spheroid response to apoptosis pathway targeting inhibitors Alrizomadlin, Pelcitoclax, and Dasminapant in combination with a variety of drugs and investigational agents in selected tumor cell lines
# The MDM2 inhibitor alrizomadlin, the Bcl-2/Bcl-xL inhibitor pelcitoclax, and the IAPs inhibitor dasminapant were evaluated both individually and in combination with standard of care and investigational anticancer small molecules within a complex spheroid model of solid tumors. . Complex spheroids include a stromal component modeled by human endothelial cells (HUVEC) and fibroblasts modeled by human mesenchymal stem cells (MSCs). The concentration ranges selected for each drug and investigational agent were based upon clinically achievable concentrations if the clinical Cmax of the agent was known.
# Compounds. The drugs and investigational agents: alrizomadlin (APG-115; NSC831270), pelcitoclax (APG-1252; NSC835773), dasminapant (APG-1387;NSC834197), TAK-243 (NSC785004), copanlisib (NSC809693), olaparib (NSC753686), talazoparib (NSC767125), cobimetinib (NSC 768068), eltanexor (KPT-8602, NSC 794443), abemaciclib (NSC 768073), sotorasib (NSC818433), adagrasib (NSC 831453), MRTX-1133 (NSC 836407), Iadademestat (ORY1001, NSC 806812), and RMC-4630 (NSC839698), were obtained from the NCI Developmental Therapeutics Program Chemical Repository. The FDA-approved anticancer drug set is available from the Developmental Therapeutics Program at https://dtp.cancer.gov/organization/dscb/obtaining/available plates.htm. […] The stock solutions were prepared in dimethyl sulfoxide (DMSO, Sigma-Aldrich, St. Louis, MO, cat. D2650) at 800-fold the tested concentration and stored at -70 degrees C prior to their use. All drugs and investigational agents were tested over a range starting from a high concentration at or near the clinical Cmax and decreasing in half-log increments. If the clinical Cmax for an agent had not been determined, the highest concentration tested was 10 microM.
# The patient-derived cancer (PDC) cell lines include five colon adenocarcinomas: 186277-243-T-J2-PDC, 616215-338-R-J1-PDC, 439559-082-T-J2-PDC, 463943-066-T-J2-PDC, and 519858-162-T-J1-PDC; three pancreatic carcinomas: 323965-272-R-J2-PDC, 521955-158-R6-J3-PDC, and 521955-158-R2-J5-PDC; two uterine sarcomas: 327498-152-R-J2-PDC and 993429-296-R-J1-PDC; two rhabdomyosarcomas: 755483-174-R-J1-PDC and 772245-204-R-J1-PDC; two soft tissue sarcomas: 126254-015-R-J1-PDC and 494315-158-R-J1-PDC; two malignant fibrous histiocytomas: 317291-083-R-J1-PDC and 596521-263-R-J1-PDC; two breast carcinomas: 171881-019-R-J1-PDC and 885512-296-R-J2-PDC; and one ovarian carcinoma: 6556581-035-R-J-PDC were obtained from the NCI PDMR, (https://pdmr.cancer.gov). The established cell lines HSSY-2 synovial sarcoma (RRID:CVCL 8719), SYO-1 synovial sarcoma (RRID:CVCL_7146), MPNST malignant peripheral neural sheath tumor were obtained from the Sloan Kettering Institute. The following established cell lines were purchased from the American Type Culture Collection (ATCC, Manassas, VA), Sor the received from the NCI repository:, PANC-1 pancreatic carcinoma (CRL-1469, RRID:CVCL_0480), OVCAR-5 ovarian carcinoma (RRID:CVCL_1628), OVCAR-8 ovarian carcinoma (RRID:CVCL_1629), , MCF-7 breast carcinoma (CRL-12584, RRID:CVCL_0031), MDA-MB-231 breast carcinoma (CRL-12532, RRID:CVCL_0062), NCI-H1876 small cell lung carcinoma (CRL-5902, RRID:CVCL_1503), NCI-H510A small cell lung carcinoma (HTB-184, RRID:CVCL_1565), NCI-H1417 (CRL-5869, RRID:CVCL_1469), and NCI-H196 small cell lung carcinoma (CRL-5823, RRID:CVCL_1509). Dr. Peter Houghton (Greehey Children's Cancer Research Institute, University of Texas Health Science Center, San Antonio, TX) provided Rh-18 rhabdomyosarcoma (RRID:CVCL_1659). Pooled donor human umbilical vein endothelial cells (HUVEC, Lonza, cat. CC-2519) and human mesenchymal stem cells (hMSC, Lonza, cat. PT-2501) were purchased from Lonza (Walkersville, MD).
# Cell Culture. […]
# 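Note: compound exposure lasted seven days.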
# 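Throughout, for viability, T/C: 100% = DMSO vehicle control viability.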
smiles,measurement,setting,value
C=C(F)C(=O)N1CCN(c2nc(OCC3CCCN3C)nc3c2CCN(c2cccc4cccc(Cl)c24)C3)CC1CC#N (configuration not stated),"viability, T/C",compound alone 10 µM,"0.25%, 0.24%, 37.7%"
CCN1C(C(=O)NC23CCC(C(=O)O)(CC2)CC3)C(c2cccc(Cl)c2F)C2(C(=O)Nc3cc(Cl)ccc32)C12CCCCC2 (configuration not stated),"viability, T/C",compound alone 0.03 µM,"109, 97.1, 102, 96.7, 94.2, 95.1, 108, 103, 113, 89.2, 97.2, 91.7, 96.5, 85.4, 99.3%"
same,"viability, T/C",compound alone 0.0949 µM,"106, 108, 95.5, 100 (2×), 99.4, 102 (2×), 107, 104, 90.2, 112, 101, 88.7, 85.1%"
same,"viability, T/C",compound alone 0.3 µM,"116, 111, 110, 88.2, 105, 89.1, 98.7, 95.7, 108, 88.3, 89.6, 89.5, 101, 85.5, 99.3%"
same,"viability, T/C",compound alone 0.949 µM,"99, 83.8, 98, 93.2, 79.1, 87.2, 96.9, 109, 104, 93.7, 94, 81.8, 114, 93.3, 98.8%"
same,"viability, T/C",compound alone 3 µM,"81.7, 92.2, 84.9, 75.5, 71.6, 62.9, 86, 78.2, 85.8, 74.5, 75.1, 80.1, 74.7, 65.4, 90.2%"
Cc1c(S(C)(=O)=O)c(-c2cc(F)cc(N3CCN(c4ccc(NS(=O)(=O)c5ccc(NC(CCN6CCC(C(=O)OCCCP(=O)(O)O)CC6)CSc6ccccc6)c(S(=O)(=O)C(F)(F)F)c5)cc4)CC3)c2)c(-c2ccc(Cl)cc2)n1C(C)C (configuration not stated),"viability, T/C",compound alone 3.16 µM,"36.3, 42.4, 63.2, 40.7, 53.6, 31.4, 46.3, 41.1, 38, 43.2, 40.3, 45.9, 46.4, 33.8%"
same,IC50,"compound alone, run of 10/11/2022","2.02 µM, 1.54 µM, > 10 µM, 1.04 µM, 919 nM, 1.06 µM, 1.11 µM, 706 nM, 2.33 µM, 1.37 µM, 1.69 µM, 990 nM, 660 nM"
CNC(C)C(=O)NC1CN(S(=O)(=O)c2cccc(S(=O)(=O)N3CCC4CCC(C(=O)NC(c5ccccc5)c5ccccc5)N4C(=O)C(NC(=O)C(C)NC)C3)c2)CCC2CCC(C(=O)NC(c3ccccc3)c3ccccc3)N2C1=O (configuration not stated),"viability, T/C",compound alone 0.0316 µM,"89.2, 76.7, 116, 85.9, 89, 107, 120, 99.9, 92.8, 93.8, 88.8, 104, 95.7% [2022-10] and 113% [2022-11]"
same,"viability, T/C",compound alone 0.1 µM,"75.1, 65.1, 105, 82.9, 95.4, 86.5, 94.6, 86.6, 106, 89.3, 89.9, 85.9, 89% [2022-10] and 101% [2022-11]"
same,"viability, T/C",compound alone 0.316 µM,"71, 88.8, 98.7, 95, 91.9, 84, 96.6, 95.9, 97.7, 86.6, 93.3, 91.4, 101% [2022-10] and 96% [2022-11]"
same,"viability, T/C",compound alone 1 µM,"75, 70.7, 89.9, 91.3, 87, 91.7, 106, 90.8, 92.6, 88, 88.5, 86, 89.5% [2022-10] and 101% [2022-11]"
